# Source: article PMC4336329 (PLoS ONE, 2015)
# About 14,000 (4.5%) of roughly 310,000 compounds showed an effect of 50% or more. The effect is printed as a negative number. Some of the results follow.
# Target: human ether-à-go-go-related gene (hERG) potassium channel (human, UniProt Q12809)
# Assay: primary screen, population patch clamp on CHO cells stably expressing hERG
# 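Also: peak tail current of the secondary pulse compared with the same well before compound.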
# human ether-à-go-go-related gene (hERG) potassium channel, sequence (Q12809 whole entry, looked up): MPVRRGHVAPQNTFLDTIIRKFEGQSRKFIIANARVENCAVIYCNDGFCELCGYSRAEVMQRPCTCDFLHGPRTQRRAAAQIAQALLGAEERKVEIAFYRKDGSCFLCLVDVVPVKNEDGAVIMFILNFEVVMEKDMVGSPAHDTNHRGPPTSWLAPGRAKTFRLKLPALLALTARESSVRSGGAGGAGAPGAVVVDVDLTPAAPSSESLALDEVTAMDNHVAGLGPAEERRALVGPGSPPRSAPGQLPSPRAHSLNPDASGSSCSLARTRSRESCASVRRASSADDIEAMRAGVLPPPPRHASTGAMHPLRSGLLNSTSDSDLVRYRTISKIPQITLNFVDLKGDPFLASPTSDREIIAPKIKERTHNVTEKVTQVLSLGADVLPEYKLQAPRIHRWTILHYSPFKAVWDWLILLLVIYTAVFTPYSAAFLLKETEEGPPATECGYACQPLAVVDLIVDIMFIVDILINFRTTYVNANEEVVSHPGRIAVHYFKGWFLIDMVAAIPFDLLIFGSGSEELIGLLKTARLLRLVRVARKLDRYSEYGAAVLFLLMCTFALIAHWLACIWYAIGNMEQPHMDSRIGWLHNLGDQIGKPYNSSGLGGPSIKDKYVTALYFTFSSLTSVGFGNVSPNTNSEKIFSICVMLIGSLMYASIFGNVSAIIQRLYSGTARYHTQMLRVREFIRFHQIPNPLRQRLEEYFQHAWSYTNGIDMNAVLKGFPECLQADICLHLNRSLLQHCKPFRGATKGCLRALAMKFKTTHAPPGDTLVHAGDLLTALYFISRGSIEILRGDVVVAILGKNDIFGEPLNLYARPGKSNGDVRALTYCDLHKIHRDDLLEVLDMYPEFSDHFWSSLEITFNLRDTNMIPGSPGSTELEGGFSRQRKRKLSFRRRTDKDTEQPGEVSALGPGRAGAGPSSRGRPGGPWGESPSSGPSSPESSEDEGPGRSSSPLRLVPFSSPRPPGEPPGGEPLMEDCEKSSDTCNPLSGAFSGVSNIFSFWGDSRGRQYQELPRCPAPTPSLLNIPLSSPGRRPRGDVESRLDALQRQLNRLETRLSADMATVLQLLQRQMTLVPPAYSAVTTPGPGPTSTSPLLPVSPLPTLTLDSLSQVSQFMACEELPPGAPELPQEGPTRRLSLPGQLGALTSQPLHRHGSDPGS
row,SMILES,"hERG current change (%, negative = inhibition) at 10uM"
1,Cc1c(Br)c([N+](=O)[O-])nn1CC(=O)N1CCN(Cc2ccccc2)CC1,-56.4%
2,CC(=O)c1cccc(NS(=O)(=O)c2ccc3c(c2)oc(=O)n3C)c1,-6.14%
3,Cc1nc2nc(N)nc(OCc3ccccc3)c2nc1C,4.32%
4,CCN(CC)c1nc(N2CCN(CCO)CC2)nc2ccccc12.Cl,-27.8%
5,CSc1ccc(CNC(=O)C(C)n2nc(C)c3c(C)n(-c4ccccc4)nc3c2=O)cc1 (centres unmarked),-38.2%
6,CCS(=O)(=O)N1CCN(C(=O)c2cccc(OC)c2)CC1,6.21%
7,NS(=O)(=O)c1ccc2nc(-c3ccccc3)c(-c3ccccc3)nc2c1,-21.8%
8,CC(C)NC(=O)CC1(C(=O)NCc2ccc(Cl)cc2)CCCC1,29.1%
9,CCC(C)(c1ccc(C(=O)OC)s1)c1ccc(C(=O)OC)s1,8%
10,CN(C(=O)CCN1C(=O)/C(=C/c2ccccc2F)SC1=S)C1CCS(=O)(=O)C1 (centres unmarked),-8.32%
11,Clc1cccc(CSc2ccc(-c3ccco3)nn2)c1,7.39%
12,Nc1c(Cl)ncnc1N/N=C/c1cccnc1,6.9%
13,CC(C)(C)N(Cc1ccccc1)C(=O)COC(=O)CCc1c[nH]c2ccccc12,-0.0832%
14,COc1ccc(C(=O)NC(=O)COC(=O)C2COc3ccccc3O2)cc1 (centres unmarked),0.535%
15,Cc1ccc(CN(C(=O)Cc2cccs2)C(C(=O)NC2CCCC2)c2ccncc2)cc1 (centres unmarked),-21.7%
16,CC(C)N(O)C(=O)NC(C)(C)C,11.5%
17,COc1ccc(OC)c(S(=O)(=O)Nc2cc(Cl)cc(Cl)c2)c1,-8.79%
18,COc1ccc(NC(=O)CSc2nncn2N)c(OC)c1,20.4%
19,CCC(=O)NNc1nc2c(F)cc(F)cc2s1,9.79%
20,Cc1nc2ccccc2nc(C)c1=NOCc1ccc(Cl)cc1Cl,-1.12%
21,O=C(N/N=C/c1ccccc1Cl)c1cccc(F)c1,1.24%
22,CC(C)(C)c1ccc(C(=O)NCc2nnc(SCC(=O)NCC3CCCO3)o2)cc1 (centres unmarked),14.6%

row,SMILES,"hERG current change (%, negative = inhibition) at 10uM"
1,CS(=O)(=O)N(CCc1ccccc1)CC(=O)NCc1ccc2c(c1)OCO2,-22.6%
2,CCNC(=S)NNC(=O)c1csc(C)c1,28.6%
3,Cc1c(C)c2ccc(OC(C)C(=O)N3CC[C@@]4(O)CCCC[C@H]4C3)c(C)c2oc1=O (some centres unmarked),14.9%
4,COc1ccc(Nc2nc(C)nc3c2nnn3Cc2ccccc2)cc1OC,-2.04%
5,CC(=O)Nc1ccc(S(=O)(=O)NC2CC(=O)N(c3ccc(C)c(C)c3)C2)cc1 (centres unmarked),16.7%
6,C=CCSC(=S)Nc1c(C)n(C)n(-c2ccccc2)c1=O,13.9%
7,COc1ccc(-c2nc(N)nc(C)c2Oc2ccccc2Br)c(O)c1,-10.7%
8,N/C(=N\OC(=O)c1ccc2ccccc2c1)c1cccc([N+](=O)[O-])c1,5.05%
9,COC(=O)c1ccc(Oc2nc(SC)nc(N(C)C)n2)cc1,13.2%
10,CCN1C(=O)c2ccccc2S(=O)c2ccc(C(=O)NCCCN3CCCC3=O)cc21 (centres unmarked),-0.828%
11,CN(C)S(=O)(=O)n1cnc2ccccc21,5.24%
12,Cc1ccc(Cn2ccc(NC(=O)c3cc(-c4cccs4)on3)n2)cc1,9.1%
13,COc1cccc(-c2nc(CS(=O)(=O)CC(=O)NCCCc3ccccc3)c(C)o2)c1,14.9%
14,COc1ccc(CC(NC(C)=O)C(=O)NC2CCN(C(=O)C3CCCCC3)CC2)cc1OC (centres unmarked),8.57%
15,Cc1ccc(OCCC(=O)N(CCC(C)C)c2c(N)n(Cc3ccccc3)c(=O)[nH]c2=O)cc1,-1.67%
16,Cc1cc2c3c(c1)C(C)(c1ccccc1)CC(C)(C)N3C(=O)C21C(C#N)=C(N)OC2=C1C(=O)CC(C)(C)C2 (centres unmarked),-15.2%
17,Cn1c(SCc2ccc(C(=O)Nc3nccs3)cc2)nnc1-c1ccccc1,4.85%
18,CCOc1ccc(NC(=O)c2nn(C)c(C(=O)Nc3ccc(OCC)cc3)c2[N+](=O)[O-])cc1,7.08%
19,Nc1nc(SCC(=O)N2CCCC2)[nH]c(=O)c1-c1ccccc1,15.2%
20,CCN1CC(CN(C)Cc2nc(-c3ccc(C(F)(F)F)cc3)no2)CC1=O (centres unmarked),-28.9%
21,COc1cc(N)ccc1C(=O)O,-0.112%
22,COC(=O)c1nc(NNC(=O)c2ccccc2)sc1-c1ccccc1,12.1%
